The campaign covered roughly 360,000 compounds. About 16,000 (4.4%) were called active. This list was built around the results that the source calls inconclusive (neither active nor inactive); the mix of calls is not that of the screen. Calls come from the whole dose curve; as a rule, active = well fitted inhibition curve with a large enough effect; inconclusive = small, poorly fitted or top-dose-only effect; inactive = no such curve, though single readings can be large or run the other way. Potencies of inconclusive entries are doubtful fits and often do not repeat. The source holds several records for some structures; these can differ, active in one and inactive in another.
Each compound was assayed against Bromodomain adjacent to zinc finger domain protein 2B (Homo sapiens) (UniProt Q9UIF8) (assay: qHTS Assay for Inhibitors of BAZ2B). Conditions: AlphaScreen BAZ2B-H3K14Ac peptide displacement; series mostly up to 114 µM.
Chain of UniProt Q9UIF8 (Q9UIF8 whole entry, looked up, the tested form may be a part): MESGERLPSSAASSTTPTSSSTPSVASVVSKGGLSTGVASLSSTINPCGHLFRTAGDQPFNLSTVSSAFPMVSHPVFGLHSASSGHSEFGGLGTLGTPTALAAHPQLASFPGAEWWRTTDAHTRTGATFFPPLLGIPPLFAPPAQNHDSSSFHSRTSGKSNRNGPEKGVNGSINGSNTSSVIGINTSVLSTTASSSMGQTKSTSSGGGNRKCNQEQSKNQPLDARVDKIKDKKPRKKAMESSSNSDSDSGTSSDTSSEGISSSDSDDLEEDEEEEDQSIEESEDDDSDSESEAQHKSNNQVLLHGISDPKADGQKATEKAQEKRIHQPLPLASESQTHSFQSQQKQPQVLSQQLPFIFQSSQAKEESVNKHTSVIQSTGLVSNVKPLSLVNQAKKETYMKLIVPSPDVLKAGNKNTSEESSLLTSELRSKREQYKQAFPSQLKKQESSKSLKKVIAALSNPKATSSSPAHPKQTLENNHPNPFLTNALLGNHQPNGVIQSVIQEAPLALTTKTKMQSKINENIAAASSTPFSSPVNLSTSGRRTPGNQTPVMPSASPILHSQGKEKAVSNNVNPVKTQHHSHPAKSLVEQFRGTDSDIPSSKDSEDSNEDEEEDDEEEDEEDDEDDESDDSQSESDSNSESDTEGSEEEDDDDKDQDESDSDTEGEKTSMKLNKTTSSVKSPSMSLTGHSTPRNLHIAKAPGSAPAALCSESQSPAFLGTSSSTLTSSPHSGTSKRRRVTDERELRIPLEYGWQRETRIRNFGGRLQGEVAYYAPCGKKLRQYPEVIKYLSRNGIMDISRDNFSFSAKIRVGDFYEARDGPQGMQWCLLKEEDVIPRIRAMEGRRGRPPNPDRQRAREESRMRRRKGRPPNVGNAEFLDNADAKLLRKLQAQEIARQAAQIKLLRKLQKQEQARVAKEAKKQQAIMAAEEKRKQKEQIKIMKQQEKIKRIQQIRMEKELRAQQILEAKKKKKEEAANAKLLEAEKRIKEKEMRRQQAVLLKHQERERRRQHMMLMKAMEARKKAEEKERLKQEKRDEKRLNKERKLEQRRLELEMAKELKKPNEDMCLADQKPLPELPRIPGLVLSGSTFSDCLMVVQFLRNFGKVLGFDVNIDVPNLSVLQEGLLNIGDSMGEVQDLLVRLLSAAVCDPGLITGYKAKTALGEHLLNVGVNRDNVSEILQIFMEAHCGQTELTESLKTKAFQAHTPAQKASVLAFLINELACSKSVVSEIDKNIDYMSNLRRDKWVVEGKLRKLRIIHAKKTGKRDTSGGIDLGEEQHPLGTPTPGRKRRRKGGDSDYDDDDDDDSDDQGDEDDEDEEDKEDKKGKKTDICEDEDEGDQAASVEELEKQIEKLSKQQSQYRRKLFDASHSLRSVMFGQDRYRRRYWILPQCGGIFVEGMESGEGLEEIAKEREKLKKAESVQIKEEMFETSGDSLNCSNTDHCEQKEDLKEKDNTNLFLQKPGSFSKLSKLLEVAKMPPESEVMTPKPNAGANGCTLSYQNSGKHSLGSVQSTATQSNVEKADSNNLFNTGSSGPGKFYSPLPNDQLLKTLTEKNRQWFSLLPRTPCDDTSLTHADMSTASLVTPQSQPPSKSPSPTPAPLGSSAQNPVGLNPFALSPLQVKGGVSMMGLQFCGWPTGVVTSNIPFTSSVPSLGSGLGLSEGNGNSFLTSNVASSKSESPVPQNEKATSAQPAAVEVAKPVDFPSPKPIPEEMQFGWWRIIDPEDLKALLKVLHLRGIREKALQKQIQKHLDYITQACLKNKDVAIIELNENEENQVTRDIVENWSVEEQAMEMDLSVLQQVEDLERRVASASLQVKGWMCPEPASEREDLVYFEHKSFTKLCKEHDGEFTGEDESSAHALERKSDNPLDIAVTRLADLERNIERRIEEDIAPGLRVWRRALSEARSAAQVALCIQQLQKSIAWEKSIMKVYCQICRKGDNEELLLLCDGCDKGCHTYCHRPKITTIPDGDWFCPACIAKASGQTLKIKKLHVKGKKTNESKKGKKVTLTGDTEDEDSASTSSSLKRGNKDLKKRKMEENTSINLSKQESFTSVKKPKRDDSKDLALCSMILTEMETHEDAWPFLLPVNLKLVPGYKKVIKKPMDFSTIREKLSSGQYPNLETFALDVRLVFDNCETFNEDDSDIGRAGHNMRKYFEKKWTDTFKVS
In short: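 AlphaScreen luminescence quantifies BAZ2B engagement of H3K14Ac peptide; the protein and biotinylated peptide are both at 50 nM final, buffer PBS pH 7.4 with 0.01% Tween-20, all steps at room temperature.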
For `COCCCNC(=O)Cn1c(=O)n(-c2ccc(Cl)cc2)c(=O)c2c3c(sc21)CCCCC3`, the Potency was “inactive”.
In the case of `Cc1ccc(-n2c(SCc3cc(=O)n4ccsc4n3)nnc2-c2cccnc2)c(C)c1`, the Potency was active: 56.2 µM.
In the case of `COc1ccc(CCNC(=O)CN2C(=O)COc3ccc(S(=O)(=O)N4CCCCCC4)cc32)cc1OC`, the Potency was inconclusive: 7.94 µM [inhibitor, full curve, poor fit].
With `O=C(N/N=C/c1ccccn1)c1ccc(Br)o1` the Potency was active: 70.8 µM.
For `COc1cc(OC)cc(C(=O)N(Cc2cc3cc(C)ccc3[nH]c2=O)C(C)C)c1`, the Potency was inconclusive: 56.2 µM [inhibitor, partial curve].
In the case of `CCOC(=O)C1CCCN(S(=O)(=O)c2ccc3c(c2)N(C)C(=O)CC(=O)N3C)C1` (stereo not drawn), the Potency was “inactive”.
In the case of `CC(=O)c1c(C)[nH]c(C(=O)COC(=O)c2cc(C)oc2C)c1C`, the Potency was inconclusive: 89.1 µM [inhibitor, single point].
`O=C1CCN(CCc2ccccc2)CCN1CCSc1ccccc1` was tested, and the Potency was “inactive”.
With `CCN(CC)S(=O)(=O)c1cccc(C(=O)NCC2CCCO2)c1` (stereo not drawn) the Potency was inconclusive: 7.94 µM [inhibitor, full curve].
In the case of `COC(=O)c1ccc(CSc2nc3c(c(=O)n2-c2ccc(C)cc2)SCC3)o1`, the Potency was inconclusive: 39.8 µM [inhibitor, full curve, poor fit].
`O=C(COC(=O)/C=C/c1ccco1)Nc1cccc([N+](=O)[O-])c1` was tested, and the Potency was inconclusive: 89.1 µM [inhibitor, single point].
In the case of `COc1cccc(NC(=O)Nc2ccc(Cc3ccncc3)cc2)c1`, the Potency was “inactive”.
For `CCN(CC)CCCN1C=C2C(=O)C(C)(OC(=O)C3CCCC3)C(=O)C=C2C=C1c1ccsc1` (stereo not drawn), the Potency was “inactive”.
`COc1ccc(-n2c(CCC(=O)O)ccc2-c2ccc(F)cc2)c(OC)c1` was tested, and the Potency was “inactive”.
`CC1(C)C2CCC(C2)C1(C)NC(=O)CN1CCN(Cc2ccccc2)CC1` (stereo not drawn) was tested, and the Potency was active: 28.2 µM.
With `O=C1C(Cl)=C(N2CCC(C(=O)O)CC2)C(=O)c2ccccc21` the Potency was inconclusive: 50.1 µM [inhibitor, partial curve].
For `COc1ccc(C2C=C(c3ccccc3)Nc3nc(NC(C)=O)nn32)cc1` (stereo not drawn), the Potency was active: 50.1 µM.
In the case of `COc1ccccc1NS(=O)(=O)c1ccc(-c2cnc(C3CC3)o2)cc1`, the Potency was inconclusive: 70.8 µM [inhibitor, single point].
With `Oc1ccc(N2CCN(C(=S)NCCc3ccccc3)CC2)cc1` the Potency was inconclusive: 44.7 µM [inhibitor, partial curve].
For `CCC(C)NCCOCCOc1ccccc1-c1ccccc1` (stereo not drawn), the Potency was active: 50.1 µM.
In the case of `Cc1ccc(NC(=O)CN2C(=O)C(c3ccc(F)cc3)=NC23CCCCCC3)c(C)c1`, the Potency was “inactive”.
For `CCCCCn1c(N)c(-c2nc3ccccc3o2)c2c([N+](=O)[O-])nn(CC)c(=O)c21`, the Potency was inconclusive: 50.1 µM [inhibitor, partial curve, poor fit].
`CCOc1cc(CNCCc2ccc(S(N)(=O)=O)cc2)ccc1OCc1ccccc1` was tested, and the Potency was inconclusive: 79.4 µM [inhibitor, single point].
With `CC1CCN(S(=O)(=O)c2ccc3nc(NCc4ccc(N(C)C)cc4)ccc3c2)CC1` the Potency was active: 35.5 µM.
With `CC(=O)Nc1ccc(N2CCCCC2)c(C(=O)Nc2cccc(C)c2)c1` the Potency was inconclusive: 79.4 µM [inhibitor, single point].
For `C#CCOCCOCCOCCNc1nc(N2CCN(C(=O)[C@H]([C@@H](C)CC)n3cc(CCCN=C(N)N)nn3)CC2)nc(N2CCN(C(=O)[C@H](C)n3cc(CCCN=C(N)N)nn3)CC2)n1`, the Potency was inconclusive: 89.1 µM [inhibitor, single point].
With `COc1ccc(N2CCN(C(=O)c3ccccc3F)CC2)c([N+](=O)[O-])c1` the Potency was inconclusive: 44.7 µM [inhibitor, partial curve].
In the case of `Cn1c(CS/C(N)=N/N=C/c2ccccc2)c(Br)c(=O)n1-c1ccccc1`, the Potency was inconclusive: 50.1 µM [inhibitor, partial curve].
For `Cc1cc(N2CCN(c3ccccc3)CC2)nc(-c2ccccc2O)n1`, the Potency was “inactive”.
`CCOc1ccc(/C(O)=C2\C(=O)C(=O)N(CCOCCO)C2c2ccccc2OC)cc1` (stereo not drawn) was tested, and the Potency was “inactive”.
`C[C@H](NC(=O)[C@@H]1Cc2ccccc2CN1)C(=O)NC1CCCCC1` was tested, and the Potency was “inactive”.
With `Cc1ccc(C)c(-n2c(-c3cccnc3)n[nH]c2=S)c1` the Potency was inconclusive: 79.4 µM [inhibitor, single point].
With `O=C(NNC(=O)C1CCN(S(=O)(=O)c2ccccc2C(F)(F)F)CC1)c1ccccc1O` the Potency was “inactive”.
With `COc1ccc(OC)c(NC(=O)C2CCCN(S(=O)(=O)c3ccc(-n4cnnn4)cc3)C2)c1` (stereo not drawn) the Potency was inconclusive: 3.98 µM [inhibitor, single point].
For `COc1ccc(C(=O)CC(=O)C(=O)Nc2ccccc2)cc1`, the Potency was active: 70.8 µM.
In the case of `O=C(O)c1cc([N+](=O)[O-])c(NCc2cccnc2)c([N+](=O)[O-])c1`, the Potency was inconclusive: 79.4 µM [inhibitor, partial curve].
With `O=C(CCl)Nc1ccc(N2CCCCCC2)cc1` the Potency was inconclusive: 44.7 µM [inhibitor, partial curve].
For `O=C(O)C/C(=C\c1cc2c(cc1Br)OCO2)c1nc2ccccc2s1`, the Potency was “inactive”.
In the case of `Cc1ccc(Sc2ccc(C(=O)N3CCOCC3)cc2[N+](=O)[O-])cc1`, the Potency was inconclusive: 44.7 µM [inhibitor, partial curve].
With `COc1cc(/C=C2/C(=O)NN(c3ccccc3)C2=O)cc(Br)c1O` the Potency was inconclusive: 35.5 µM [inhibitor, partial curve].
`Cc1ccc(NC2=CC(=O)CC(C)(C)C2)cc1F` was tested, and the Potency was “inactive”.
`Cc1cccc(NC(=O)c2nc[nH]c2C(=O)Nc2cccc(C)c2)c1` was tested, and the Potency was inconclusive: 79.4 µM [inhibitor, single point].
For `Cc1ccc(C2=Nc3ccccc3N=C(c3ccc(F)cc3)C2)c(O)c1`, the Potency was “inactive”.
For `Cn1c(=O)n(C)c2cc([N+](=O)[O-])c(N3CCN(CCO)CC3)cc21`, the Potency was inconclusive: 50.1 µM [inhibitor, partial curve].
`COc1cc(OC)c2c(C)cc(=O)oc2c1C(CCN1CCOCC1)c1ccc(N(C)C)cc1` (stereo not drawn) was tested, and the Potency was active: 39.8 µM.
`CCN(CCCNC(=O)c1[nH]c(C)c(C(C)=O)c1C)c1ccccc1` was tested, and the Potency was active: 50.1 µM.
In the case of `O=C(/C=C/c1ccc(O)cc1)c1ccc(NC2=C(N3CCCCC3)C(=O)c3ccccc3C2=O)cc1`, the Potency was inconclusive: 44.7 µM [inhibitor, partial curve].
For `Cc1ccc2[nH]c3c(c2c1)CN(C(=O)CN1CC(C)OC(C)C1)CC3` (stereo not drawn), the Potency was “inactive”.
`O=C1CCC2(CC1)NC(=O)N(c1ccccc1)N2` was tested, and the Potency was “inactive”.
In the case of `Cc1cccc(OCCCN2CCOCC2)c1`, the Potency was “inactive”.
In the case of `Cc1nc2ccccc2c(=O)n1NC(=O)C1CC1`, the Potency was “inactive”.
For `CCOc1ccccc1C(=O)NCC(=O)NNC(=O)CN(C)S(=O)(=O)c1ccc(Cl)cc1`, the Potency was “inactive”.
`O=C(NCc1ccco1)C1CCN(c2nc3ccccc3n2Cc2ccc(F)cc2)CC1` was tested, and the Potency was inconclusive: 79.4 µM [inhibitor, single point].
With `CCC1CCCCN1CCCNC(=O)c1ccc2c(c1)c(C)c(C)n2CC` (stereo not drawn) the Potency was inconclusive: 44.7 µM [inhibitor, partial curve].
`CCOC(=O)c1ccc(CN(Cc2ccccc2)S(=O)(=O)c2cccc([N+](=O)[O-])c2)cc1` was tested, and the Potency was inconclusive: 79.4 µM [inhibitor, partial curve].
For `CCOC(=O)c1c(Nc2ccc(C)c(C)c2)nnc(-c2ccccc2)c1-c1ccccc1`, the Potency was inconclusive: 7.08 µM [inhibitor, full curve].
In the case of `CN(C)S(=O)(=O)c1ccc(S(=O)(=O)NCCN2CCOCC2)cc1`, the Potency was “inactive”.
In the case of `COc1cccc2sc(N(CCCN(C)C)C(=O)c3ccc(S(=O)(=O)N4CCc5ccccc5C4)cc3)nc12`, the Potency was inconclusive: 35.5 µM [inhibitor, partial curve].
In the case of `CCN1CCc2c(C#N)c(N3CCCCC3)nc(NCc3ccccc3)c2C1`, the Potency was active: 56.2 µM.
For `COc1cc(CNc2ccc(O)cc2)cc(Br)c1OCc1ccccc1`, the Potency was active: 39.8 µM.
`Cc1cc(C)cc(OCC(=O)O/N=C(\N)c2ccccc2Cl)c1` was tested, and the Potency was “inactive”.
For `Cc1ccc(S(=O)(=O)N(CCC(=O)O)c2ccccc2)cc1`, the Potency was “inactive”.
`S=C(NCCN1CCOCC1)Nc1ccc(Nc2ccccc2)cc1` was tested, and the Potency was inconclusive: 22.4 µM [inhibitor, full curve].
With `CN1CCC(N2CCN(c3cccc(C(F)(F)F)c3)CC2)CC1` the Potency was inconclusive: 89.1 µM [inhibitor, single point].
For `Cn1c(-c2cccc(Br)c2)cnc1NCc1ccccc1O`, the Potency was active: 50.1 µM.
For `COc1cc(CN2CCN(Cc3cccc(OC)c3OC)CC2)cc(OC)c1`, the Potency was active: 17.8 µM.
For `NC(=O)CCn1c2ccccc2c2ccccc21`, the Potency was “inactive”.
For `Cc1csc(SCC(=O)Nc2sccc2C#N)n1`, the Potency was active: 56.2 µM.
With `CCN(CCNC(=O)C1CC(=O)N(CCc2ccccc2)C1)c1ccccc1` (stereo not drawn) the Potency was inconclusive: 89.1 µM [inhibitor, single point].
For `O=C(O)CCCNC(=O)c1cncc(O)c1`, the Potency was inconclusive: 89.1 µM [inhibitor, single point].
With `Cc1cnc(C(=O)NCC(=O)Nc2ccccc2Br)cn1` the Potency was inconclusive: 50.1 µM [inhibitor, partial curve].
`Cc1ccc(OCCSc2nc3ccccc3n2CC(=O)N2CCOCC2)cc1` was tested, and the Potency was inconclusive: 89.1 µM [inhibitor, partial curve].
For `Cc1cc(N2CCN(C)CC2)nc2ccc(NC(=S)NCCC(C)C)cc12`, the Potency was inconclusive: 50.1 µM [inhibitor, partial curve].
Note: nearly all actives have a fitted effect of over 60% in size.
Potency is the fitted concentration of half-maximal effect; tags give direction and shape of the fitted curve.
